The other results are listed elsewhere or left out. These are noisy estimates, calculated here from bound and input reads.
These sequences were tested against T1, Pho4 (S. cerevisiae) (UniProt P07270) (assay: relative binding free energy (BET-seq); higher = weaker binding). Conditions: reference: library average.
T1 sequence: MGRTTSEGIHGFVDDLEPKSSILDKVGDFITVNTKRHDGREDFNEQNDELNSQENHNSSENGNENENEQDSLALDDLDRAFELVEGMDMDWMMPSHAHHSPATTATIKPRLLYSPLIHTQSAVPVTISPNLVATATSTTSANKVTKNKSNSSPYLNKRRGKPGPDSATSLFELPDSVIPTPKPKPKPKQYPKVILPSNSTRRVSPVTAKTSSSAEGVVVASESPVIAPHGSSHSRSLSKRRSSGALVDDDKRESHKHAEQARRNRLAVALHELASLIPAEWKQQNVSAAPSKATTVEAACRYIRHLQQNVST

Row | Sequence | relative binding free energy
1 | GAACTCACGTGTGTGT | 0.14 kcal/mol
2 | GTCGGCACGTGAAGTA | 0.18 kcal/mol
3 | ACGGGCACGTGAATTT | 0.23 kcal/mol
4 | GTGAACACGTGGTGTC | -0.09 kcal/mol
5 | GGGGTCACGTGGGAGC | 0 kcal/mol
6 | TATTCCACGTGTGTAA | 0.04 kcal/mol
7 | AAAGACACGTGTGGTT | 0.18 kcal/mol
8 | TGGAGCACGTGTAAAT | -0.02 kcal/mol
9 | TGTAGCACGTGTGACG | -0.06 kcal/mol
10 | GGGTGCACGTGGGCGG | -0.04 kcal/mol
11 | GTTGACACGTGTATAT | 0.07 kcal/mol
12 | TGTGACACGTGGATTA | 0.01 kcal/mol
13 | GTGTTCACGTGACCGG | 0.46 kcal/mol
14 | GGGCACACGTGCGGGG | -0.12 kcal/mol
15 | GGGAACACGTGTGCAG | 0 kcal/mol
16 | CTGCTCACGTGGTGGT | -0.04 kcal/mol
17 | AGGCTCACGTGTAGGT | 0.26 kcal/mol
18 | TTCCGCACGTGGGGGT | -0.12 kcal/mol
19 | GTCGGCACGTGGTGAT | -0.13 kcal/mol
20 | GTACGCACGTGGGGAT | -0.25 kcal/mol
21 | ATGAGCACGTGGTAGT | -0.16 kcal/mol
22 | TATGCCACGTGATGGG | 0.07 kcal/mol
23 | GAGCGCACGTGAGTGG | 0.22 kcal/mol

Row | Sequence | relative binding free energy
24 | TGGTACACGTGGAAGG | 0.09 kcal/mol
25 | GTTATCACGTGTCGTT | 0.31 kcal/mol
26 | TAGGTCACGTGAGAGA | 0.22 kcal/mol
27 | GGGCACACGTGTTGTC | 0.25 kcal/mol
28 | ATGGTCACGTGTTTCA | -0.02 kcal/mol
29 | TACTGCACGTGTAGTG | -0.12 kcal/mol
30 | TAGGTCACGTGTTAAG | 0.21 kcal/mol
31 | GTGGTCACGTGCATGG | 0.18 kcal/mol
32 | ACTTTCACGTGGAGTG | 0.12 kcal/mol
33 | GAGAACACGTGAGTAG | 0.43 kcal/mol
34 | GGTTACACGTGTGGCG | 0.18 kcal/mol
35 | TTCATCACGTGTTGGA | 0.17 kcal/mol
36 | TATTGCACGTGTCAGT | -0.07 kcal/mol
37 | GGTGTCACGTGTGCGA | 0.24 kcal/mol
38 | GGGAGCACGTGGTTTC | -0.02 kcal/mol
39 | GTTTACACGTGTTTTA | 0.23 kcal/mol
40 | GCGTGCACGTGAGGGG | 0.12 kcal/mol
41 | GGTTACACGTGGTTAG | 0.14 kcal/mol
42 | TCGCGCACGTGGGGGC | -0.3 kcal/mol
43 | ATATTCACGTGGTGGG | 0.19 kcal/mol
44 | TTGGGCACGTGGGACA | -0.17 kcal/mol
45 | TTTCTCACGTGTCTTG | 0.28 kcal/mol
46 | CTGATCACGTGTAATG | 0.24 kcal/mol

Row | Sequence | relative binding free energy
47 | TGCATCACGTGTGTCG | 0.09 kcal/mol
48 | GCGGACACGTGCGGTG | -0.09 kcal/mol
49 | ATGGTCACGTGTGAAA | -0.02 kcal/mol
50 | ATGTTCACGTGACGTG | 0.25 kcal/mol
51 | GTTTTCACGTGCGGGA | 0.32 kcal/mol
52 | TATGACACGTGATTTG | 0.15 kcal/mol
53 | TCTGCCACGTGGGGTG | -0.33 kcal/mol
54 | TACTTCACGTGTGTAT | 0.19 kcal/mol
55 | AAAGTCACGTGTAAAT | 0.32 kcal/mol
56 | TTATCCACGTGGTAGG | -0.17 kcal/mol
57 | TTGGGCACGTGTGGGT | 0.06 kcal/mol
58 | ATGGGCACGTGGAATA | -0.02 kcal/mol
59 | ATGGACACGTGTAGGC | 0.12 kcal/mol
60 | CTTTTCACGTGTGAAA | 0.31 kcal/mol
61 | GGAAGCACGTGCAGGG | -0.13 kcal/mol
62 | GGGAGCACGTGGAGTC | -0.08 kcal/mol
63 | TTTTCCACGTGTGGGG | 0.22 kcal/mol
64 | TGTTACACGTGTGTTA | 0.13 kcal/mol
65 | TGCGTCACGTGTTGTG | 0.05 kcal/mol
66 | ACGGTCACGTGTGAGG | 0.27 kcal/mol
67 | TTAGACACGTGCGGAG | 0.26 kcal/mol
68 | GTTTACACGTGCGCGG | -0.05 kcal/mol
69 | AGCGTCACGTGAGTTT | 0.29 kcal/mol

Row | Sequence | relative binding free energy
70 | GTATGCACGTGCTGTG | 0 kcal/mol
71 | CTTGTCACGTGTTAGG | 0.11 kcal/mol
72 | GTTTGCACGTGTACTG | 0.07 kcal/mol
73 | AAAGTCACGTGCTGGG | -0.03 kcal/mol
74 | CTGAGCACGTGGGATG | -0.24 kcal/mol
75 | TATTGCACGTGAACAT | 0.26 kcal/mol
76 | GGAGACACGTGGGAGG | -0.06 kcal/mol
77 | GGGGTCACGTGTTTGA | 0.16 kcal/mol
78 | GTGAACACGTGAGTTG | 0.3 kcal/mol
79 | CGTCGCACGTGTTTGG | 0.07 kcal/mol
80 | TATTTCACGTGGGCAA | 0.09 kcal/mol
81 | AGTTACACGTGATCGT | 0.17 kcal/mol
82 | TTTCTCACGTGATGTG | 0.25 kcal/mol
83 | CCTGTCACGTGGAGGG | 0.13 kcal/mol
84 | TGCTGCACGTGAATTG | 0.23 kcal/mol
85 | ATGGTCACGTGACGGT | 0.32 kcal/mol
86 | AGATTCACGTGTGTTT | 0.35 kcal/mol
87 | CATATCACGTGGTGTA | -0.04 kcal/mol
88 | TAGTTCACGTGTGGGT | 0.34 kcal/mol
89 | GGCCGCACGTGGTGTG | -0.23 kcal/mol
90 | TGCGTCACGTGGGTAG | -0.09 kcal/mol
91 | TAGGGCACGTGGGATC | -0.12 kcal/mol
92 | GTACACACGTGTTATG | 0.05 kcal/mol

Row | Sequence | relative binding free energy
93 | GAGGGCACGTGTGCGA | -0.07 kcal/mol
94 | GATTACACGTGTAGGT | 0.11 kcal/mol
95 | CTGAGCACGTGGGGCT | -0.1 kcal/mol
96 | TGCTTCACGTGGAATG | 0.28 kcal/mol
97 | GGGGGCACGTGGAAGT | 0.11 kcal/mol
98 | CTGGTCACGTGTTTTA | 0.02 kcal/mol
99 | TATTGCACGTGATTTT | 0.11 kcal/mol
100 | CTATTCACGTGGTGTA | 0.17 kcal/mol
101 | GTCGCCACGTGTAGGT | -0.09 kcal/mol
102 | GCGTGCACGTGGGTGG | -0.19 kcal/mol
103 | GTCGGCACGTGGTGGA | -0.11 kcal/mol
104 | TGGGGCACGTGATAAC | -0.03 kcal/mol
105 | CGAGGCACGTGGTCGT | -0.23 kcal/mol
106 | ATATACACGTGTGTCA | 0.11 kcal/mol
107 | TTTGGCACGTGAATCT | 0.06 kcal/mol
108 | TGTTACACGTGCCGGT | 0.09 kcal/mol
109 | ATGTCCACGTGGATAG | 0.07 kcal/mol
110 | ATGTTCACGTGAGAGG | 0.38 kcal/mol
111 | TGGGGCACGTGAAAGT | 0.16 kcal/mol
112 | CTTGGCACGTGTAGCT | 0.18 kcal/mol
113 | TGATACACGTGGATAG | 0.03 kcal/mol
114 | AAAGTCACGTGGTTGT | 0.09 kcal/mol
115 | TCAAGCACGTGGGTTG | -0.22 kcal/mol

— the BET-seq Pho4 binding data (Le et al. 2018)
